In the supplement of paper PMC12217912:
The other results are listed elsewhere or left out. The full chains were built here from the parent and the listed change. Values near 0.05 are background.

B1: TEV protease; numbered along this chain (parent)
chain: MGESLFKGPRDYNPISSSICHLTNESDGHTTSLYGIGFGPFIITNKHLFRRNNGTLVVQSLHGVFKVKDTTTLQQHLVDGRDMIIIRMPKDFPPFPQKLKFREPQREERICLVTTNFQTKSMSSMVSDTSCTFPSGDGIFWKHWIQTKDGQCGSPLVSTRDGFIVGIHSASNFTNTNNYFTSVPKNFMELLTNQEAQQWVSGWRLNADSVLWGGHKVFMVKPEEPFQPVKEATQL

Variants of: B1
Assay: raw area under fraction-flipped curve 0-4 h after induction (AUC4h, not background-subtracted), DNA-recorder readout of cleavage of the substrate (dimensionless); higher = more cleavage of the substrate by the protease variant
Conditions: temperature: 34 °C; time window: 0-4 h after rhamnose induction
Method: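 In vivo DNA recorder in E. coli TOP10(DE3) ΔrhaA at 34 °C. Each TEVp single-site mutant (parent TEVp 0) is paired with a single-site variant of the 7-mer TEVs (canonical ENLYFQ|S). The substrate sits between flexible linkers in a Bxb1-sfGFP-TEVs-SsrA fusion, so cleavage stabilises Bxb1 and speeds flipping of a recombination array, read by NGS. The value is the raw area under the fraction-flipped curve over 0-4 h after rhamnose induction (AUC4h), with ≥20 reads per time point. It is not background-subtracted; inactive controls average about 0.047.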
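Further: Bxb1 expression induced with 0.2% (w/v) L-rhamnose at OD600 near 0.5, cultures sampled hourly, flipped fraction per protease–substrate barcode pair counted by paired-end Illumina sequencing.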

Variant | area with substrate ENCYFQS | area with substrate ENDYFQS | area with substrate ENEYFQS | area with substrate ENKYFQS | area with substrate ENMYFQS | area with substrate ENQYFQS | area with substrate ENSYFQS | area with substrate ENVYFQS | area with substrate ENFYFQS | area with substrate ENGYFQS | area with substrate ENHYFQS | area with substrate ENIYFQS | area with substrate ENRYFQS | area with substrate ENTYFQS | area with substrate ENWYFQS | area with substrate ENNYFQS | area with substrate ENPYFQS | area with substrate ENYYFQS
D137K | 0.0612 | 0.057 | 0.0578 | 0.0669 | 0.0838 | 0.0601 | 0.0717 | 0.0785 | – | – | – | – | – | – | – | – | – | –
I139Y | 0.069 | 0.0685 | 0.0573 | 0.0719 | – | 0.0483 | 0.0599 | 0.0832 | 0.0803 | 0.0586 | 0.0611 | 0.123 | 0.0627 | 0.0645 | 0.0095 | – | – | –
I139M | 0.0557 | 0.0683 | 0.0457 | – | 0.0701 | 0.0593 | 0.0609 | 0.0813 | 0.0411 | 0.0644 | 0.0496 | – | 0.0677 | 0.0505 | – | 0.048 | 0.0665 | –
I139F | 0.076 | – | 0.0627 | 0.0848 | 0.112 | 0.058 | 0.0613 | 0.0976 | – | 0.056 | – | 0.128 | 0.0598 | – | – | 0.0759 | – | 0.0412
T70A | 0.0743 | 0.0527 | 0.0766 | – | 0.0709 | 0.0612 | 0.0565 | – | – | 0.0079 | – | 0.0967 | – | – | – | – | 0.0647 | 0.0805
Q118S | 0.0726 | 0.0589 | 0.0655 | – | – | 0.0622 | 0.066 | 0.0671 | 0.0608 | 0.0649 | – | – | 0.0723 | – | 0.0128 | 0.0722 | – | 0.066
P155Y | 0.07 | – | 0.0559 | 0.0511 | – | 0.0574 | 0.057 | 0.0502 | – | – | – | 0.045 | 0.0559 | 0.0512 | – | 0.0551 | – | –
D82F | 0.0567 | 0.0575 | – | 0.0415 | 0.0458 | 0.0602 | – | 0.0251 | 0.0542 | 0.053 | – | – | 0.0479 | 0.07 | 0.0054 | 0.0568 | 0.0616 | 0.0607
D82W | 0.0441 | – | 0.0556 | – | 0.0565 | 0.0522 | 0.0516 | 0.0626 | 0.0601 | 0.0785 | 0.0672 | 0.0589 | 0.0421 | – | – | 0.0479 | 0.0601 | –
I85D | 0.0459 | – | 0.0397 | – | 0.0243 | 0.0538 | – | – | – | – | 0.0444 | – | 0.045 | – | – | – | – | –
I43P | 0.0477 | – | 0.0464 | 0.0432 | 0.0724 | 0.049 | 0.0484 | 0.0378 | 0.0446 | 0.0504 | 0.0293 | 0.0375 | 0.0492 | 0.0491 | – | – | – | 0.035
L156I | 0.0672 | 0.0615 | 0.068 | 0.0681 | 0.0891 | 0.0419 | 0.0585 | 0.0576 | 0.0566 | 0.0635 | 0.0501 | 0.102 | 0.0619 | 0.0625 | 0.066 | 0.0355 | – | –
F65T | 0.0629 | 0.0583 | 0.05 | 0.054 | 0.0797 | 0.0508 | 0.0412 | 0.0783 | – | 0.0597 | – | 0.0961 | 0.0592 | – | – | 0.0606 | 0.0276 | 0.0485
S124Q | 0.0633 | 0.0635 | 0.046 | 0.0614 | – | 0.0502 | 0.0692 | 0.0671 | 0.0729 | 0.0605 | 0.0513 | 0.0742 | 0.0646 | 0.0761 | – | 0.0544 | 0.0543 | 0.0867
F133Q | 0.0642 | 0.0568 | – | 0.0552 | – | 0.0568 | 0.0633 | 0.0846 | – | – | 0.0797 | – | – | – | – | 0.061 | – | 0.0576
S130C | 0.064 | – | – | – | – | 0.0591 | 0.0467 | – | 0.0692 | – | – | – | – | 0.0799 | – | 0.0464 | – | –
S130G | 0.0566 | 0.0588 | 0.0516 | – | – | 0.0507 | 0.0554 | 0.0922 | – | – | 0.0707 | 0.115 | 0.0668 | – | 0.0515 | – | 0.0656 | 0.0656
D69I | 0.0673 | – | – | – | – | 0.0439 | – | – | – | – | 0.0606 | 0.0739 | – | – | 0.0042 | – | 0.0511 | 0.0596
D69C | 0.0623 | – | 0.0861 | 0.0471 | 0.0767 | 0.0612 | 0.115 | 0.0735 | 0.0603 | 0.0838 | – | 0.0973 | 0.0546 | 0.0282 | – | 0.0613 | – | 0.0608
G28E | 0.0699 | 0.0649 | 0.0552 | 0.0553 | 0.0462 | 0.0527 | 0.0612 | 0.078 | 0.0685 | 0.0506 | – | – | 0.0464 | – | – | 0.084 | 0.0693 | –
H76I | 0.0659 | 0.0562 | – | – | 0.067 | 0.0717 | – | – | 0.0629 | 0.0472 | 0.0567 | – | – | – | 0.0606 | – | – | –
F95V | 0.0629 | 0.0643 | 0.0447 | – | 0.0796 | 0.047 | – | – | – | – | 0.054 | 0.08 | – | 0.0635 | – | – | 0.0474 | 0.0551
R51L | 0.0703 | 0.0626 | 0.0687 | – | 0.0885 | 0.0573 | 0.146 | – | 0.0552 | 0.0708 | – | – | 0.072 | 0.0634 | – | 0.0566 | – | –
N116K | 0.0542 | 0.0748 | 0.0574 | – | – | 0.0607 | 0.115 | – | 0.0542 | 0.0663 | – | – | 0.0435 | – | – | 0.0706 | – | –
L61D | 0.0692 | 0.0619 | 0.0684 | 0.0632 | 0.0952 | 0.0585 | 0.0702 | 0.0782 | 0.0602 | – | 0.0799 | 0.1 | 0.0665 | 0.0457 | 0.0571 | – | – | 0.078
T114V | 0.0728 | 0.059 | 0.0647 | 0.0578 | – | 0.0649 | 0.0537 | 0.0659 | 0.0501 | 0.0447 | – | 0.113 | 0.0648 | 0.0654 | 0.064 | 0.0505 | 0.0597 | 0.0551
G37E | 0.0493 | 0.0579 | 0.0577 | 0.0304 | 0.0491 | 0.0369 | 0.0497 | – | 0.0386 | 0.0506 | 0.0428 | 0.0429 | 0.0469 | 0.0399 | – | 0.069 | 0.0615 | –
F140A | 0.0459 | 0.0571 | 0.0638 | – | 0.0179 | – | 0.0571 | – | – | – | – | 0.0638 | – | – | – | – | 0.0847 | –
Q105A | 0.0754 | 0.0566 | 0.0579 | 0.0566 | 0.0758 | 0.0564 | 0.0631 | – | 0.07 | – | 0.0557 | 0.112 | 0.0347 | 0.0598 | – | 0.0617 | 0.0599 | 0.0659
F41L | 0.0592 | 0.0628 | 0.0738 | – | – | – | 0.0578 | 0.0647 | 0.0589 | 0.0622 | 0.043 | 0.119 | 0.0463 | 0.0651 | – | 0.0547 | – | –
